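These data come from cells grown in 96-well plates and exposed to compound for 48 hours at five concentrations. GI50: concentration for 50% inhibition of growth. TGI is the concentration that stops growth completely.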

The subject of the test is NCI-H322M lung. Briefly: inhibition of tumour cell growth, NCI panel, 48 h.
Consider `Cc1cc2nc3c4ccccc4n(CCNCCN(C)C)c3nc2cc1C`, for which the GI50 is 7.46 µM and the TGI was 20.5 µM.

`Cc1ccc(C(SCCNCc2cc(N(C)C)ccn2)(c2ccccc2)c2ccccc2)cc1`: the GI50 was 3.56 µM and the TGI is 15.1 µM.

`O=C(Nc1cccc(C(F)(F)F)c1)c1cncc(C#Cc2cnc3ccc(N4CCOCC4)nn23)c1`: the GI50 is 5.82 µM and the TGI is 45.8 µM.

The record behind these values is PubChem BioAssay (NCI).
